According to PubChem BioAssay AID624296 (National Center for Advancing Translational Sciences (NCATS), 2012):
About 9,900 (2.8%) of roughly 350,000 compounds were called active. The inconclusive results got no clear call from the source; some entries with a clear call stand among them for comparison. Calls follow the shape of the dose curve; as a rule, active = well fitted activation curve with a large enough effect; inconclusive = small, poorly fitted or top-dose-only effect; inactive = no such curve, though single readings can be large or run the other way. Potencies of inconclusive entries are left out as doubtful fits.

Assay: A quantitative high throughput screen for small molecules that induce DNA re-replication in MCF 10a normal breast cells. Also: nearly all actives have a fitted effect of over 50% in size. As to activity, positive = re-replication: % of control where 0% means no effect.
Details: MCF 10A DNA re-replication, Hoechst nuclear intensity, 48 h; activity, positive = re-replication: at 46.1 µM (top of the series)
Potency is read from the fitted curve at half-maximal effect; tags tell the direction and shape of the fitted curve.

SMILES	Potency	activity, positive = re-replication
COCCOC(=O)c1[nH]c2c(c1C)C(=O)CC(c1ccccc1)C2 (configuration not stated)	active: 5.8 µM	
Cc1cccc(N/C=C/c2onc(C)c2[N+](=O)[O-])c1		inactive: 36.2%
CCCCOc1ccc(NC(=O)CN2CCN(Cc3ccccc3)CC2)cc1	inconclusive [activator, single point]	
O=C(COc1ccc(Cl)cc1Cl)NCCSc1ccc(Cl)cc1	inconclusive [activator, single point]	
Cn1c(SCc2cccc(C#N)c2)nc2ccccc2c1=O		inactive: -4.01%
O=C(CCCn1c(=O)[nH]c2cc(Cl)ccc2c1=O)NCCCN1CCN(c2ccc(F)cc2)CC1	inconclusive [activator, partial curve, poor fit]	
Brc1ccc(-c2csc(N3CCC(c4ccccc4)C3)n2)cc1 (configuration not stated)	inconclusive [activator, partial curve, poor fit]	
Nc1cccc(CCc2nc3cc4ccccc4cc3[nH]2)c1	active: 7.31 µM	
CN(C)S(=O)(=O)Oc1ccsc1C(=O)Nc1ccc(Cl)c(Cl)c1	inconclusive [activator, single point]	
COc1cc([C@H]2OC[C@H]3[C@@H]2CO[C@H]3c2ccc(O)c(OC)c2)ccc1O		inactive: -0.685%
CCCc1cc(=O)oc2cc(OCC(=O)Nc3ccccn3)ccc12	inconclusive [activator, single point]	
O=C(O)CN1C(=O)/C(=C\c2cn(-c3ccccc3)nc2-c2ccccc2)SC1=S	inconclusive [activator, single point]	
O=C(N/N=C/c1ccccc1)c1[nH]c2ccc(Br)cc2c1-c1ccccc1		inconclusive: 58% [activator]
O=C(Nc1cc(Cl)cc(Cl)c1)C(NCCO)c1ccccc1 (configuration not stated)	inconclusive [activator, partial curve, poor fit]	
Cc1cccc(C)c1NS(=O)(=O)c1ccc(-c2cnc(C3CC3)o2)cc1	inconclusive [activator, full curve, poor fit]	
COc1ccc(NS(=O)(=O)c2ccc(NC(=O)c3ccc(CN4CCOCC4)cc3)cc2)cc1	inconclusive [activator, single point]	
COc1ccccc1-c1sc2cc3c(cc2c1-c1ccc(O)cc1)OCO3	inconclusive [activator, single point]	
Cc1cccc(C)c1Nc1c(-c2ccccn2)nc2ccccn12	inconclusive [activator, single point]	
Cn1c2ccsc2c2ncn(Cc3ccccc3F)c(=O)c21	inconclusive [activator, partial curve, poor fit]	
ON=C1c2ccccc2-c2ccc(Br)cc21	inconclusive [activator, single point]	
COc1ccc(-n2cc(-c3ccccc3)c3c(NCCCN4CCOCC4)ncnc32)cc1	inconclusive [activator, partial curve]	
O=c1[nH]c(CSc2ncnc3sccc23)nc2cc(C(F)(F)F)ccc12	inconclusive [activator, full curve]	
COC(=O)c1ccc2c(=O)n(Cc3ccco3)c(SCC(=O)Nc3ccc(C)c(Cl)c3)nc2c1	inconclusive [activator, partial curve, poor fit]	

SMILES	Potency	activity, positive = re-replication
CN(Cc1ccccc1)c1nc2c(c(=O)[nH]c(=O)n2C)n1CCCc1ccccc1		inactive: -11.7%
CCOC(=O)c1ccc(NC(=O)CC2C(=O)N(c3ccc(F)cc3)C(=O)N2CCC(C)C)cc1 (configuration not stated)	inconclusive [activator, full curve, poor fit]	
C=CCCN(Cc1ccccc1)S(=O)(=O)c1ccccc1Br	inconclusive [activator, partial curve, poor fit]	
CCOP(=O)(OCC)C(NC(=O)Nc1cccc(Cl)c1)c1ccccc1 (configuration not stated)	inconclusive [activator, partial curve, poor fit]	
CCn1c(SCC(=O)N/N=C/C=C\c2ccccc2[N+](=O)[O-])nc2ccccc21		inactive: 14.7%
Cc1ccc(-c2cc([C@H]3[C@H]4C=CC[C@@H](C)[C@@H]4C(=O)N3Cc3ccccc3)ccc2F)cc1	inconclusive [activator, single point]	
O=c1c2cc(Cl)ccc2nc(-c2ccc(Cl)c(Cl)c2)n1O	inconclusive [activator, partial curve, poor fit]	
CCN(CC)CCCNC(=O)c1cc2c(=O)n(C)c3ccccc3c2n1C	inconclusive [activator, single point]	
CCCCC(=O)N1C/C=C\C(c2ccc(OC)cc2)N(Cc2ccc(F)cc2)C(=O)[C@H]1Cc1ccccc1 (some centres not stated)	inconclusive [activator, partial curve, poor fit]	
COCCN1CCN(C(=O)c2ccc3c(c2)S(=O)(=O)c2ccccc2C3=O)CC1	inconclusive [activator, single point]	
O=C(CCN1C(=O)C2CCCCC2C1=O)Nc1ccc(Br)cc1F (configuration not stated)		inactive: 24.7%
Cc1ccccc1Cn1cc(NC(=O)c2cc3nc(-c4ccco4)cc(C(F)(F)F)n3n2)cn1		inactive: 13.8%
COC(=O)Nc1nn(-c2ccc(Cl)cc2)c(=O)c(C#N)c1C		inactive: 4.86%
O=[N+]([O-])c1ccc(N2CCN(Cc3ccccc3)CC2)s1		inactive: -2.96%
CCN(CC)S(=O)(=O)c1ccc(F)c(C(=O)NCCC(C)C)c1	inconclusive [activator, partial curve, poor fit]	
CCCC(=O)Nc1ccc(C#Cc2ccccc2)cc1		inactive: 22.1%
Cc1cc(C)cc(NC(=S)NC2CC3CCCC(C2)N3C2CC2)c1 (configuration not stated)	inconclusive [activator, partial curve, poor fit]	
Cc1noc(C)c1S(=O)(=O)N(C)C[C@H]1Oc2ccc(NS(=O)(=O)c3cn(C)cn3)cc2C(=O)N([C@H](C)CO)C[C@@H]1C	inconclusive [activator, partial curve, poor fit]	
Cc1ccc(Cn2c(=N)c(C(=O)NCC3CCCO3)cc3c(=O)n4cccc(C)c4nc32)cc1 (configuration not stated)	active: 20.6 µM	
CC(C)(C)c1ccc(C(=O)CCC(=O)OCC(=O)NCCc2ccc(S(N)(=O)=O)cc2)cc1		inactive: 1.41%
Cc1cc(C)c(NC(=O)COC(=O)CSc2ccc(Br)cc2C)c(C)c1	inconclusive [activator, partial curve, poor fit]	
Cc1ccc(NC(=O)C2CCN(S(C)(=O)=O)CC2)c(C)c1	active: 4.11 µM	
Cc1cccc(N2CCN(C(=O)c3ccccc3OCc3c(C)noc3C)CC2)c1C		inactive: 27.7%

SMILES	Potency	activity, positive = re-replication
COc1cccc(OC)c1-c1nn(-c2ncc(C(F)(F)F)cc2Cl)c(=O)o1		inactive: 7.76%
Cc1cc(NC(=O)c2cnn3c(C(F)(F)F)cc(-c4ccccc4)nc23)no1		inactive: 12.6%
Cc1ccc(S(=O)(=O)N2CCN(Cc3cc4c(cc3Br)OCCO4)CC2)cc1	inconclusive [activator, partial curve, poor fit]	
C[C@@H](NC(=O)c1[nH]cnc1C(=O)Nc1ccccc1)c1ccccc1	inconclusive [activator, partial curve, poor fit]	
COC(=O)[C@@]1(Cc2ccc(OC)cc2)[C@@H]2C(=CC(=O)[C@H]2CC(=O)C(=O)N(C)C)CN1C(=O)c1ccccc1	inconclusive [activator, partial curve, poor fit]	
O=C(NN=Cc1ccc(O)cc1)C(=O)NN=Cc1ccc(O)cc1		inactive: -22.1%
COC(=O)C(NS(=O)(=O)c1ccccc1Br)C(C)C (configuration not stated)	inconclusive [activator, single point]	
Cc1cc(C)c2nc(N3CCN(C)CC3)c(C#N)cc2c1	inconclusive [activator, single point]	
COc1ccc(CCNC(=O)c2c(O)c3ccccc3[nH]c2=O)cc1	inconclusive [activator, partial curve, poor fit]	
Fc1ccc(Nc2nnc(C(F)(F)F)s2)cc1Cl		inactive: -18.3%
CCc1c(C)c(C#N)c2nc3ccccc3n2c1NC		inactive: 0.0754%
Cc1cccc(NC(=O)Nc2ccc(C#N)cc2)n1	active: 14.6 µM	
CC(C)C[C@H]1CNC(=S)N1CC1CCCN1C[C@H](Cc1ccc(O)cc1)N1C[C@H](Cc2ccccc2)N(CC2CCCCC2)C1=S (some centres not stated)	inconclusive [activator, single point]	
CC(C)N(C(=O)CSc1nc2ccccc2c(=O)[nH]1)C(C)C		inactive: 3.34%
O=C(Cc1ccccc1)N1CCCC(c2nc(-c3ccc(S(=O)(=O)N4CCCC4)cc3)no2)C1 (configuration not stated)		inactive: -5.78%
CC(=O)NC1CC2CCCC(C1)N2C(=O)Nc1cccc(Cl)c1 (configuration not stated)	inconclusive [activator, single point]	
CCN(CC)CC(=O)Nc1c(C)cccc1C	inconclusive [activator, full curve, poor fit]	
CCC(c1n[nH]c(=S)n1-c1ccccc1)N(C)C (configuration not stated)	inconclusive [activator, full curve, poor fit]	
Cc1nc(-c2ccc(NC(=O)C3CC3)cc2)cs1		inactive: -43.7%
CCN1CC(CN(C)Cc2nc(-c3ccc(C(F)(F)F)cc3)no2)CC1=O (configuration not stated)	inconclusive [activator, partial curve, poor fit]	
CC(C)=CCC/C(C)=C/CNC(=O)C[C@H]1C[C@H](C(=O)N2CCCCC2)[C@@]2(C)c3[nH]c4cc(CCC(=O)N(C)C)ccc4c3CCN2C1=O	inconclusive [activator, full curve, poor fit]	
